# The supplement of paper PMC12217912
# This is one part of the list. Sequences were assembled here from the parent chain. Inactive controls read about 0.05.
# B1: TEV protease; numbered along this chain (parent)
# chain: MGESLFKGPRDYNPISSSICHLTNESDGHTTSLYGIGFGPFIITNKHLFRRNNGTLVVQSLHGVFKVKDTTTLQQHLVDGRDMIIIRMPKDFPPFPQKLKFREPQREERICLVTTNFQTKSMSSMVSDTSCTFPSGDGIFWKHWIQTKDGQCGSPLVSTRDGFIVGIHSASNFTNTNNYFTSVPKNFMELLTNQEAQQWVSGWRLNADSVLWGGHKVFMVKPEEPFQPVKEATQL
# Variants of: B1
# Experiment: raw area under fraction-flipped curve 0-4 h after induction (AUC4h, not background-subtracted), DNA-recorder readout of cleavage of the substrate (dimensionless); higher = more cleavage of the substrate by the protease variant
# Conditions: temperature: 34 °C; time window: 0-4 h after rhamnose induction
# Description: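 In vivo DNA recorder in E. coli TOP10(DE3) ΔrhaA at 34 °C. Each TEVp single-site mutant (parent TEVp 0) is paired with a single-site variant of the 7-mer TEVs (canonical ENLYFQ|S). The substrate sits between flexible linkers in a Bxb1-sfGFP-TEVs-SsrA fusion, so cleavage stabilises Bxb1 and speeds flipping of a recombination array, read by NGS. The value is the raw area under the fraction-flipped curve over 0-4 h after rhamnose induction (AUC4h), with ≥20 reads per time point. It is not background-subtracted; inactive controls average about 0.047.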
# 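Further: Bxb1 expression induced with 0.2% (w/v) L-rhamnose at OD600 near 0.5, cultures sampled hourly, flipped fraction per protease–substrate barcode pair counted by paired-end Illumina sequencing.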
Variant,area with substrate ECLYFQS,area with substrate EDLYFQS,area with substrate EHLYFQS,area with substrate EILYFQS,area with substrate EKLYFQS,area with substrate ELLYFQS,area with substrate EMLYFQS,area with substrate EPLYFQS,area with substrate ERLYFQS,area with substrate ETLYFQS,area with substrate EVLYFQS,area with substrate EWLYFQS,area with substrate EYLYFQS,area with substrate EGLYFQS,area with substrate EQLYFQS,area with substrate ESLYFQS,area with substrate EELYFQS,area with substrate EFLYFQS
MGESLFKGPRDYNPISSSICHLTNESDGHTTSLYGIGFGPFIITNKHLFRRNNGTLVVQSLHGVFKVKDTTTLQQHLVDGRDMIIIRMPKDFPPFPQKLKFREPQREERICLVTTNFQTKSMSSMVSDTSCTFPSGDGIFWKHWIQTKDGQCGSPLVSTRDGFIVGIHSASNFTNTNNYFTSVPKNFMELLTNQEAQQWVSGWRLNADSVLQGGHKVFMVKPEEPFQPVKEATQL [W212Q],0.0928,0.119,0.0961,0.0845,0.0921,0.0958,0.1,0.13,0.0961,0.103,0.0768,0.113,0.0823,,,,,
MGESLFKGPRDYNPISSSICHLTNESDGHTTSLYGIGFGPFIITNKHLFRRNNGTLVVQSLHGVFKVKDTTTLQQHLVDGRDMIIIRMPKDFPPFPQKLKFREPQREERICLVTTNFQTKSMSSMVSDTSCTFPSGDGIFWKHWIQTKDGQCGSPLVSTRDGFIVGIHSASNFTNTNNYFTSVPKNFMELLTNQEAQQWVSGWRLNADSVLWGGHKVFMVKPEEPFQPVIEATQL [K230I],0.111,0.135,0.0841,0.0888,0.104,0.0709,0.122,,,,0.0931,,,0.0855,0.0971,0.0909,,
MGESLFKGPRDYNPISSSICHLTNESDGHTTSLYGIGFGPFIITNKHLFRRNNGTLVVQSLHGVFKVKDTTTLQQHLVDGRDMIIIRMPKDFPPFPQKLKFREPQREERICLVTTNFQTKSMSSMVSDTSCTFPSGDGIFWKHWIQTKDGQCGSPLVSTRDGFIVGIHSASNFTNTNNYFTSVPKNFMELLTNQEAQQWVSGWRLNADSVLWGYHKVFMVKPEEPFQPVKEATQL [G214Y],0.0642,,,0.0796,0.0833,,,0.0922,,,,,0.0732,,,0.0759,0.0838,
MGESLFKGPRDYNPISSSICHLTNESDGHTTSLYGIGFGPFIITNKHLFRRNNGTLVVQSLHGVFKVKDTTTLQQHLVDGRDMIIIRMPKDFPPFPQKLKFREPQREERICLVTTNFQTKSMSSMVSDTSCTFPSGDGIFWKHWIQTKDGQCGSPLVSTRDGFIVGIHSASNFPNTNNYFTSVPKNFMELLTNQEAQQWVSGWRLNADSVLWGGHKVFMVKPEEPFQPVKEATQL [T174P],0.105,0.0951,0.0765,0.0733,,,,,0.0686,,,,,0.0679,0.0663,0.0768,0.115,
MGESLFKGPRDYNPISSSICHLTNESDGHTTSLYGIGFGPFIITNKHLFRRNNGTLVVQSLHGVFKVKDTTTLQQHLVDGRDMIIIRMPKDFPPFPQKLKFREPQREERICLVTTNFQTKSMSSMVSDTSCTFPSGDGIFWKHWIQTKDGQCGSPLVSTRDGFIVGIHSASNFTNTNNYFTSVPKNFMELLTNQEAQQWVSGWRLNADSVLWGGHKVFMVKPEEPFQPVKEANQL [T233N],0.128,0.142,0.127,0.114,,,0.112,0.176,,,,0.0965,,0.106,,0.0995,0.101,
MDESLFKGPRDYNPISSSICHLTNESDGHTTSLYGIGFGPFIITNKHLFRRNNGTLVVQSLHGVFKVKDTTTLQQHLVDGRDMIIIRMPKDFPPFPQKLKFREPQREERICLVTTNFQTKSMSSMVSDTSCTFPSGDGIFWKHWIQTKDGQCGSPLVSTRDGFIVGIHSASNFTNTNNYFTSVPKNFMELLTNQEAQQWVSGWRLNADSVLWGGHKVFMVKPEEPFQPVKEATQL [G2D],0.0997,0.111,0.13,0.09,0.104,0.0898,0.0895,0.115,0.11,0.0768,,0.0723,0.0867,0.0947,0.0859,0.0988,0.0935,
MGESLFKGPRDYNPISSSICHLTNESDGHTTSLYGIGFGPFIITNKHLFRRNNGTLVVQSLHGVFKVKDTTTLQQHLVDGRDMIIIRMPKDFPPFPQKLKFREPQREERICLVTTNFQTKSMSSMVSDTSCTFPSGDGIFWKHWIQTKDGQCGSPLVSTRDGFIVGIHSASNFTNTNNYFTSVPKNFMERLTNQEAQQWVSGWRLNADSVLWGGHKVFMVKPEEPFQPVKEATQL [L190R],0.109,,,0.0692,,0.102,0.136,,0.0854,0.0874,0.0831,0.0869,0.103,,0.118,0.0845,,
MGESLFKGPRDYNPISSSICHLTNESDGHTTSLYGIGFGPFIITNKHLFRRNNGTLVVQSLWGVFKVKDTTTLQQHLVDGRDMIIIRMPKDFPPFPQKLKFREPQREERICLVTTNFQTKSMSSMVSDTSCTFPSGDGIFWKHWIQTKDGQCGSPLVSTRDGFIVGIHSASNFTNTNNYFTSVPKNFMELLTNQEAQQWVSGWRLNADSVLWGGHKVFMVKPEEPFQPVKEATQL [H62W],0.0764,,,0.118,0.106,0.0887,,0.0994,0.0973,,0.108,0.0857,,0.0954,0.106,0.0938,,
MGESLFKGPRDYNPISSSICHLTNESDGHTTSLYGIGFGPFIITNKHLFRRNNGTLVVQSLHGVFKVKDTTTLQQHLVDGRDMIIIRMPKDFPPFPQKLKFREPQREERICLVTTNFQTKSMSSMVSDTSCTFPSGDGIFWKHWIQTKDGQCGSPLVSTRSGFIVGIHSASNFTNTNNYFTSVPKNFMELLTNQEAQQWVSGWRLNADSVLWGGHKVFMVKPEEPFQPVKEATQL [D161S],0.0848,,0.0832,0.0768,0.062,0.0795,0.0899,0.0489,,0.0816,0.0853,0.0801,,,0.0844,,0.104,
MGESLFKGPRDYNPISSSICHLTNESDGHTTSLYGIGFGPFIITNKHLFRRNNGTLVVQSLHGVFKVKDTTTLQQHLVDGRDMIIIRMPKDFPPFPQMLKFREPQREERICLVTTNFQTKSMSSMVSDTSCTFPSGDGIFWKHWIQTKDGQCGSPLVSTRDGFIVGIHSASNFTNTNNYFTSVPKNFMELLTNQEAQQWVSGWRLNADSVLWGGHKVFMVKPEEPFQPVKEATQL [K98M],0.115,,,0.1,0.114,0.0964,,0.146,0.162,0.111,0.0973,0.109,,,0.106,0.0985,0.102,0.101
MGESLFKGPRDYNPISSSICRLTNESDGHTTSLYGIGFGPFIITNKHLFRRNNGTLVVQSLHGVFKVKDTTTLQQHLVDGRDMIIIRMPKDFPPFPQKLKFREPQREERICLVTTNFQTKSMSSMVSDTSCTFPSGDGIFWKHWIQTKDGQCGSPLVSTRDGFIVGIHSASNFTNTNNYFTSVPKNFMELLTNQEAQQWVSGWRLNADSVLWGGHKVFMVKPEEPFQPVKEATQL [H21R],0.0621,0.108,0.0899,0.103,0.104,0.101,0.119,0.129,0.109,,0.0855,0.0829,,0.0903,0.106,0.101,0.143,0.105
MGESLFKGPRDYNPISSSICHLTNESDGHTTSLYGIGFGPFIITNKHLFRRNNGTLVVQSLHGVFKVKDTTTLQQHLVDGRDMIIIRMPKDFPPFPQKLKFREPQREERICLVTTNFQTKSMSSMVSDTSCTFPSGDGIFWKHWIQTKDGQCGSPLVSTRDGFIVGIHSASNFTNTNNYFTSVPKNFMELLTNQEAQQWVSGWRLNADSVLWGGHKVFMVKPHEPFQPVKEATQL [E223H],0.089,0.112,0.0941,0.0994,0.0897,0.0572,0.104,0.134,0.0821,,0.0604,0.0798,0.0881,0.0964,,0.0863,,0.0903
MGESLFKGPRDYNPISSSICHLTNESDGHTTSLYGIGFGPFIITNKHLFRRNNGTLVVQSLHGVFKVKDTTTLQQHLVDGRDMIIIRMPKDFPPFPQKLKFREPQREERICLVTTNFQTKSMSSMVSDTSCTFPSGDGIFWKHWIQTKDGQCGSPLVSTRDGFIVGIHSASNFTNTNNYFTSVPKNFMELLTNQEAQQWVSGWRLNADSVLWGGHKVFMVKPMEPFQPVKEATQL [E223M],0.102,,0.0788,0.0764,,,0.0871,,,,0.0873,0.0895,0.0738,0.069,,0.154,0.108,
MGESLFKGPRDYNPISSSICHLTNESDGHTTSLYGIGFGPFIITNKHLFRRNNGTLVVQSLHGVFKVKDTTTLQQHLVDGRDMIIIRMPKDFPPFPQKLKFREPQREERICLVTTNFQTKSMSSMVSDTSCTFPSGDGIFWKHWIQTKDGQCGSPLVSTRDGFIVGIHSASNFTNTNNYFTSLPKNFMELLTNQEAQQWVSGWRLNADSVLWGGHKVFMVKPEEPFQPVKEATQL [V183L],0.0705,,,,0.0885,0.0699,0.12,0.107,,,,0.0553,,,0.0603,,,
MGESLFKGPRDYNPISSSICHLTNESDGHTTSLYGIGFGPFIITNKHLFRRNNGTEVVQSLHGVFKVKDTTTLQQHLVDGRDMIIIRMPKDFPPFPQKLKFREPQREERICLVTTNFQTKSMSSMVSDTSCTFPSGDGIFWKHWIQTKDGQCGSPLVSTRDGFIVGIHSASNFTNTNNYFTSVPKNFMELLTNQEAQQWVSGWRLNADSVLWGGHKVFMVKPEEPFQPVKEATQL [L56E],0.0372,0.0439,0.0429,0.041,0.0345,0.0559,0.0626,0.0352,,,0.0463,0.0601,0.0474,0.0685,0.0555,0.0376,,0.0258
MGESLFKGPRDYNPISSSICHLTNESDGHTTSLYGIGFGPFIITNKHLFRRNNGTLVVQSLHGVFKVKDTTTLQQHLVDGRDKIIIRMPKDFPPFPQKLKFREPQREERICLVTTNFQTKSMSSMVSDTSCTFPSGDGIFWKHWIQTKDGQCGSPLVSTRDGFIVGIHSASNFTNTNNYFTSVPKNFMELLTNQEAQQWVSGWRLNADSVLWGGHKVFMVKPEEPFQPVKEATQL [M83K],0.0533,0.0688,0.0557,,,0.0569,0.0647,0.0606,0.0411,,0.0857,0.0269,,,,0.0631,,
MGESLFKGPRDYNPISSSICHLTNESDGHTTSLYGIGFGPFIITNWHLFRRNNGTLVVQSLHGVFKVKDTTTLQQHLVDGRDMIIIRMPKDFPPFPQKLKFREPQREERICLVTTNFQTKSMSSMVSDTSCTFPSGDGIFWKHWIQTKDGQCGSPLVSTRDGFIVGIHSASNFTNTNNYFTSVPKNFMELLTNQEAQQWVSGWRLNADSVLWGGHKVFMVKPEEPFQPVKEATQL [K46W],0.0584,0.0678,0.0624,0.0526,0.0405,0.0574,,0.0563,0.0602,,0.0242,0.0619,0.0554,0.0552,0.0683,0.0651,0.0602,0.0468
MGESLFKGPRDYNPISSSICHLTNESDGHTTSLYGIGFGPFIITNKHLFRRNNGTLVVQSLHGVFKVKDTTTLQQHLVDGRDMIIIRMPKDFPPFPQKLKFREPQREERICLVTTNFQTKSMSSMVSDTSCTFPSGDGIFWKHWIQTKDGQCGSPLVSTRDGFIVGIHSASNFTNTNNYFTSVPKNFEELLTNQEAQQWVSGWRLNADSVLWGGHKVFMVKPEEPFQPVKEATQL [M188E],0.109,,0.0884,0.0993,0.116,,,0.0977,0.0373,,0.0325,,0.117,0.0811,,,,
MGESLFKGPRDYNPISSSICHLTNESDGHTTSLYGIGFGPFIITNKHLFRRNNGTLVVQSLHGVFKVKDTTTLQQHLVDGRDMIIIRMPKDFPPFPQKLKFREPQREERICLVTTNFQTKSMSSMVSDTSCTFPSGDGIFWKHWIQTKDGQCGCPLVSTRDGFIVGIHSASNFTNTNNYFTSVPKNFMELLTNQEAQQWVSGWRLNADSVLWGGHKVFMVKPEEPFQPVKEATQL [S154C],0.11,0.134,,0.0845,0.101,0.082,0.139,0.112,0.0885,0.124,0.0982,0.118,0.083,0.11,0.111,0.139,0.0833,0.102
